# The supplement of paper PMC11417369
# ± gives the standard deviation of the averaged measurements. The list shows a part of the results.
# Test system: PfAP2-EXP AP2 domain (GST-tagged)
# Test: gcPBM binding intensity (ln(normalized median fluorescence intensity)); higher = stronger DNA binding
# In short: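 For binding intensity, the highest Masliner-normalised natural-log median intensity across replicate spots of either probe orientation was taken. Protein bound to the array was stained with Alexa488 anti-GST antibody and scanned at 488 nm. The protein, GST-tagged P. falciparum DNA-binding domains from E. coli at about 25 μg on average, had been applied for 1 h to an Agilent 4 × 180k array of primer-extended double-stranded 36-bp intergenic genomic probes and negative controls.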
row,Sequence,gcPBM binding intensity (ln)
1,GTCTATAACTATTGCGCACACTTTAAAAAAAAAGAA [CACACA_site1003],9.055 ± 0.021
2,CTAGACTTTATTAATTGTACATATGTGTATTTTATA [XGTACX_site480],8.62 ± 0.39
3,GTTACTGCATACATAACACACATATTCAAAACCCAT [CACACA_site5856],8.79 ± 0.54
4,TTTTCCTTTACATAATGTACACAAAAAAAAAAAAAA [XGTACX_site716],8.41 ± 0.48
5,CATCATAGAGTGGAGTGTACAAATATGTCAACATAT [XGTACX_site2264],8.9 ± 0.38
6,TCTTTTTTTTGAATTTGTACATAAGACAATAAAAAA [XGTACX_site4682],8.32 ± 0.35
7,AATACAGACAGACACACACACAAAATAAAATACAAA [CACACA_site245],8.77 ± 0.52
8,ATAAAAAAATCAGACACACACACGTAAACCCATACA [CACACA_site2773],8.74 ± 0.57
9,ACATATTTATATATGTGTACATAAATATTCTTTTAA [XGTACX_site8238],8.06 ± 0.27
10,CATATCCTTACGAACTGTACAATATTAAGAATAAAA [XGTACX_site1651],8.53 ± 0.45
11,ATATATTCAATTCATACACACACAATTTAAGAATGA [CACACA_site9289],8.55 ± 0.42
12,AAAAAAAAAAAACACACACACACACCCATATACATA [CACACA_site2664],8.54 ± 0.64
13,GTAAAAAGATAATGAAGTACATTTTTTCATTTTTAT [XGTACX_site5579],8.19 ± 0.35
14,ATATTAAGGTTTATATTTTAACTTATTATTTTATTC [CACACA_negctrl_site795],8.21 ± 0.36
15,ATTTATTTTTTTATCACACATTTGTGAAATGTGCAT [CACACA_site5869],8.77 ± 0.4
16,ATTTATTACAAATGAATGCACTATATCTTAATTTTG,8.595 ± 0.049
17,TAAGAAAAAAGTAAATGTACAGAGAAAATTATCTAT [XGTACX_site7374],8.59 ± 0.4
18,ATAATTTTGATTATCACACATATATATATATATATG [CACACA_site5882],8.57 ± 0.4
19,ATATATTTCCTGAGGAGTACTATGAAAGACAAAAAA [XGTACX_site5628],8.7 ± 0.47
20,AAAAAAATTCTGACTTGTACATATAAAATTTACAAA [XGTACX_site4408],7.95 ± 0.26
21,GATTTTTAAAATATCACACATAAAAAAAAAAAAAAA [CACACA_site5516],8.21 ± 0.54
22,TTTGTCATTTTATTATGTACTCAGCATATAGGGGGG [XGTACX_site505],10.7 ± 0.13
23,TAATTTAATAATTAGACACACATGTGGAAAATAAAA [CACACA_site5401],8.98 ± 0.53

row,Sequence,gcPBM binding intensity (ln)
1,ACATATATATAAAGGTGTACACATATATATATATAT [XGTACX_site4779],10.2 ± 0.71
2,ATACTAAAGAAACACACACACATATATATATAGAAT [CACACA_site100],8.93 ± 0.49
3,TTTACACCCTAAAAATGTACAAGAAAGATTATATTA [XGTACX_site1102],8.36 ± 0.45
4,ATTTTTTTCCTAATGGTGCGAATAAATATCCATACC,8.88 ± 0.13
5,TTAACAGTAAAACACAGTACATATATACTTAAAACA [XGTACX_site1930],8.59 ± 0.35
6,AAAAAAAAAAAAGGAACACACAAGTAACAATAAATT [CACACA_site2481],8.83 ± 0.54
7,TTTTTTTATTATACTAGTACATATATATACAGCACA [XGTACX_site3464],8.73 ± 0.35
8,AAAGCTTACATATACACACATACATAAATTCATAAA [CACACA_site2469],8.42 ± 0.3
9,TTTTTAATAATCTCTCAAAATGTTCTTATATTTTAC [CACACA_negctrl_site1691],8.11 ± 0.26
10,TAATCTCATAAAACCGCACACACATAAAATTTGCAT [CACACA_site3890],8.69 ± 0.49
11,GAGAAATGGGGACACACACACATATTATAGATATAT [CACACA_site6829],8.83 ± 0.47
12,TAAGGATAAAATAAATGTACATATGTAAAATTATTA [XGTACX_site4170],8.48 ± 0.47
13,TTGTTTGATATCTTTGTCACGAAAAAAATATATATA [GTGCAC_negctrl_site54],8.47 ± 0.45
14,TATATATCTATATATTGTACATATGTTTGTATGTGT [XGTACX_site7420],8.54 ± 0.29
15,TATTTTTACCCATAAAGTACACATAAATATAAAATA [XGTACX_site177],8.66 ± 0.35
16,ATATAAATCATTGGTTGTACATATAATATTTTATAA [XGTACX_site925],8.41 ± 0.26
17,TAATATTTCTTATTTTATATTTGTATATGAATGGAT [XGTACX_negctrl_site278],8.43 ± 0.56
18,TGGTGATCAAAATATACATGCATATGTTCTGTTATT [TGCATGCA_site614],8.75 ± 0.27
19,GCTCAATGTTTTACATGTACATATATATATATATAT [XGTACX_site8210],10.2 ± 0.33
20,TATATATTAGAAGATAGTACATATATATTTATTAAT [XGTACX_site1011],8.53 ± 0.24
21,TATGATATCTATAATACACACATATACATAAGATCT [CACACA_site6652],8.45 ± 0.38
22,TTATATAAAACATTAACACACAAAGAAAAAAAATTA [CACACA_site1793],8.57 ± 0.47
23,TTAATATAACTTTTTGCACACTTAATTTTTTTTTTT [CACACA_site3364],8.74 ± 0.33

row,Sequence,gcPBM binding intensity (ln)
1,AAAACAAATGCTTAAAGTACTTATTATTTTTCTTTT [XGTACX_site6324],8.95 ± 0.45
2,TTCCTACTATTCAAACGTACAAAATATTTAAATAAT [XGTACX_site700],8.64 ± 0.38
3,TATTATAAAACATTATGTACATATTCTGAAAAATAG [XGTACX_site6577],8.46 ± 0.32
4,CAAAATAAAAAATTCACACACATATATATATATATA [CACACA_site2088],10.2 ± 0.38
5,TATTTCTTATTTATTTTTTAAGGAAATTAAAGATTT [CACACA_negctrl_site258],7.97 ± 0.47
6,CAAGTTCAAAATACAAGGAAGAAACAAAACTTGGCG [GTGCAC_negctrl_site600],9.12 ± 0.64
7,ATAATATAATATAAAACACACATATGTACCTTCTAA [CACACA_site2761],8.49 ± 0.28
8,TAAAAATATCTGTATACACACATATATATATATATA [CACACA_site6042],10.2 ± 0.42
9,AAAAAAAAAAAAAAAAGTACAAATCTTTATTTATTA [XGTACX_site3305],8.32 ± 0.014
10,TATATATTTTTTTCAAGTACACATTACAGTTACATA [XGTACX_site2713],8.62 ± 0.38
11,ATTCGATGTTTTAAATGTACACAAATTGAAGGAATA [XGTACX_site409],8.86 ± 0.31
12,ATGTTTTCTCTTTCGGTGCATTGTTTTCTATACTTT [GTGCAC_site9483],9.16 ± 0.49
13,TTTATATAATTTTAATGTACATATATATATATAAAT [XGTACX_site4381],8.43 ± 0.35
14,TTTTCTTACATGAGTGTACACACTTTTTTTCAGAAA [CACACA_site70],8.84 ± 0.28
15,TTATTTGAATAATGTTTGCACTTAGAGTATTTTATA,8.33 ± 0.37
16,ATATATCATAAATAAATGAAAATATTTTCTATGTGT [CACACA_negctrl_site689],8.63 ± 0.42
17,TATCTATAATATTATACACACATATATGCATAATAT [CACACA_site6175],8.74 ± 0.47
18,TTCTTCACATACACTTCAAAATTTGATAAAACATTA [CACACA_negctrl_site472],8.95 ± 0.42
19,TAATAAATAAGATTCACACATATTTAAATGTTATGC [CACACA_site5275],8.21 ± 0.33
20,GTATATAATTTTTTTTTTTTTTTCATTCTTTTCCTT [CACACA_negctrl_site1780],8.56 ± 0.42
21,AAATATATGAAATATACACACTTCTTTGGTATTATT [CACACA_site4414],8.38 ± 0.35
22,ATGAATTGACCATATTGTACATATTTAGGACTTACC [XGTACX_site8072],8.86 ± 0.42
23,TATATATTAAAACACACACACATATATATATATATA [CACACA_site3787],10 ± 0.38

row,Sequence,gcPBM binding intensity (ln)
1,AGAATATTTATATGATGTACTTATATATATATATAT [XGTACX_site3021],9.97 ± 0.47
2,CAGAAATATTAATGCTGTACGGAATACATATATTTT [XGTACX_site539],8.39 ± 0.34
3,ATTTTAATGGGACATGCATGGGACAAACTACAAATT [TGCATGCA_site853],9.3 ± 0.59
4,ATAATCCAAAAAAATCAAATAAAATAAAATAAAATA [CACACA_negctrl_site449],8.53 ± 0.37
5,TAAAAATATTTAAACTGTACTATTTTATGTTAAATG [XGTACX_site6620],8.3 ± 0.085
6,TTTTTTCTTTTCTTTTTATTTTATTTTGTTTTATTT [CACACA_negctrl_site799],8.48 ± 0.49
7,AATAAAAACTACATGTGTACATAATAAATACATATA [XGTACX_site755],8.76 ± 0.35
8,TGTTGCAAAACAAAAAAAAAAAAAAAAAATAATAAT [CACACA_negctrl_site1642],8.26 ± 0.52
9,TGAACCAGATTTAGAAGTACTAAATATTACATACAT [XGTACX_site2437],8.32 ± 0.3
10,TTATATTTTATATTTACACACATTTATATTTATAAA [CACACA_site203],8.38 ± 0.35
11,TATATAAATATTCGTAGTACAATACAATTATAAGTA [XGTACX_site3068],8.52 ± 0.48
12,TTTATAATTTTAAAATGTACAAGGAGGAAAAATTCT [XGTACX_site422],8.98 ± 0.45
13,ATTTAATAAAAAAAAAAAATATTGTAGAATATGATG [GTGCAC_negctrl_site195],8.26 ± 0.49
14,AATTTGTAAAATAAGGTGCGTATAAAAAATTATATT [GTGCAC_site9676],8.79 ± 0.16
15,ATAAACATCGGTAGTACACACATTCATGTACTTGAT [CACACA_site3037],8.6 ± 0.3
16,ATATACATATTCTTGTGTACATAAAAATTTATATAT [XGTACX_site8726],8.46 ± 0.25
17,CAAATGGTAAATGAAAGTACAAATTGTTTTGATTAA [XGTACX_site1536],8.44 ± 0.38
18,TTTGTTGACAGACACACACACATACATATATATATA [CACACA_site2288],9.8 ± 0.24
19,TATAATAATATAATGGTGCATGTATATAACCATATA,8.76 ± 0.014
20,TCTTACGGATTCATTGTGCACATATATATATATATA [GTGCAC_site9896],10.2 ± 0.45
